Assay results from US20250101074A1 (Affibody, published 2025).
Substitutions are numbered along the chain they refer to.

B1: Z10676, periplasmic ABD fusion (designed binder)
chain: AQHDEALEVDAKYAKEADDAAVEIADLPNLTWDQWYAFIQKLRDDPSQSSELLSEAKKLNDSQAPKVDYVLAEAKVLANRELDKYGVSDYYKNLINNAKTVEGVKALIDEILAALPYVPG
notes: domain: GA3
B2: Z06282, periplasmic ABD fusion (designed binder)
chain: B1 chain with D19Q, V22M, D26T, Y36F, Q40A
notes: domain: GA3; positive control from the primary selection
B3: Z10210, periplasmic ABD fusion (designed binder)
chain: B1 chain with A17M, D19Y, A21Q, V22W, A25W, D26L, W35G, Y36H, Q40S, R43I
notes: domain: GA3
B4: Z10241, periplasmic ABD fusion (designed binder)
chain: B1 chain with Q40S
notes: domain: GA3
B5: Z10255, periplasmic ABD fusion (designed binder)
chain: B1 chain with Y36F, Q40H
notes: domain: GA3
B6: Z10257, periplasmic ABD fusion (designed binder)
chain: B1 chain with V22F, D26M, Q40R
notes: domain: GA3
B7: Z10433, periplasmic ABD fusion (designed binder)
chain: B1 chain with V22F, D26A, Q40I
notes: domain: GA3
B8: Z10459, periplasmic ABD fusion (designed binder)
chain: B1 chain with D19N, D33V
notes: domain: GA3
B9: Z10462, periplasmic ABD fusion (designed binder)
chain: B1 chain with D19E
notes: domain: GA3
B10: Z10465, periplasmic ABD fusion (designed binder)
chain: B1 chain with D26E, Y36F
notes: domain: GA3
B11: Z10470, periplasmic ABD fusion (designed binder)
chain: B1 chain with D26S, Q40S
notes: domain: GA3
B12: Z10483, periplasmic ABD fusion (designed binder)
chain: B1 chain with D19Q
notes: domain: GA3
B13: Z10508, periplasmic ABD fusion (designed binder)
chain: B1 chain with D26A, Y36F, Q40S
notes: domain: GA3
B14: Z10529, periplasmic ABD fusion (designed binder)
chain: B1 chain with D26M
notes: domain: GA3
B15: Z10532, periplasmic ABD fusion (designed binder)
chain: B1 chain with D26S
notes: domain: GA3
B16: Z10534, periplasmic ABD fusion (designed binder)
chain: B1 chain with D33A, Q40G
notes: domain: GA3
B17: Z10550, periplasmic ABD fusion (designed binder)
chain: B1 chain with D19N, Y36F, Q40H
notes: domain: GA3
B18: Z10565, periplasmic ABD fusion (designed binder)
chain: B1 chain with D19E, Q40A
notes: domain: GA3
B19: Z10566, periplasmic ABD fusion (designed binder)
chain: B1 chain with V22I, D26S, Q40G
notes: domain: GA3
B20: Z10675, periplasmic ABD fusion (designed binder)
chain: B1 chain with Y36F
notes: domain: GA3
B21: Z10690, periplasmic ABD fusion (designed binder)
chain: B1 chain with D26M, Q40G
notes: domain: GA3
B22: Z10703, periplasmic ABD fusion (designed binder)
chain: B1 chain with D19R, V22M, D26E, Q40S
notes: domain: GA3
B23: Z10708, periplasmic ABD fusion (designed binder)
chain: B1 chain with D26E, Q40G
notes: domain: GA3
B24: Z10710, periplasmic ABD fusion (designed binder)
chain: B1 chain with D19N, D26M, Q40G
notes: domain: GA3

Target: T1, human IL-17A (human, UniProt Q16552 20-155)
T1 construct: Peprotech cat. no; 200-17; homodimeric cytokine; biotinylated with Sulfo-NHS-LC-Biotin for the ELISAs; also called hIL-17A; rhIL-17A
T1 sequence: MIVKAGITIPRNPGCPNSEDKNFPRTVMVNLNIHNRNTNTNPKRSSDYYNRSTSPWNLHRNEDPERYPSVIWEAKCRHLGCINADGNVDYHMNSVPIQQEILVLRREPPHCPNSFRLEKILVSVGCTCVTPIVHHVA
Test: ELISA, captured periplasmic Z-ABD, titrated b-hIL-17A
Experimental: Data were analyzed using GraphPad Prism 5 and non-linear regression, and EC50 values (the half maximal effective concentration) were calculated.

Binder	EC50
B1	0.4 nM
B2	5 nM
B3	1.1 nM
B4	0.34 nM
B5	0.46 nM
B6	0.67 nM
B7	0.94 nM
B8	0.47 nM
B9	0.34 nM
B10	0.5 nM
B11	0.47 nM
B12	0.4 nM
B13	0.38 nM
B14	0.64 nM
B15	0.36 nM
B16	0.41 nM
B17	0.79 nM
B18	0.38 nM
B19	0.55 nM
B20	0.36 nM
B21	0.59 nM
B22	0.75 nM
B23	0.41 nM
B24	0.54 nM
